Test results: paper PMC8894463
Results are given in words; binding and its absence hold for the method and conditions named. In cells and extracts the contact can be indirect. Some results given as binding are weak or reduced against the parent protein; the word gives no strength. For some assays here: Tags and fused reporters may be left off the sequences shown.

Chains of the proteins cited; added tags and fusions are not shown.
UniProt Q99836: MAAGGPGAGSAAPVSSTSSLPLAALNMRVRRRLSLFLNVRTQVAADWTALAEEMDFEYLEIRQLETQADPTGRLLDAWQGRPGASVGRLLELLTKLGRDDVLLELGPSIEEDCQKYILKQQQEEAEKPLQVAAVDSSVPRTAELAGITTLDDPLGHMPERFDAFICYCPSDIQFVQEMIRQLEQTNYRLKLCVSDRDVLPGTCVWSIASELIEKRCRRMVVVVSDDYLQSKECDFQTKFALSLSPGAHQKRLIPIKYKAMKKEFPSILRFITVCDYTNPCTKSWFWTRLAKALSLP
UniProt Q04206: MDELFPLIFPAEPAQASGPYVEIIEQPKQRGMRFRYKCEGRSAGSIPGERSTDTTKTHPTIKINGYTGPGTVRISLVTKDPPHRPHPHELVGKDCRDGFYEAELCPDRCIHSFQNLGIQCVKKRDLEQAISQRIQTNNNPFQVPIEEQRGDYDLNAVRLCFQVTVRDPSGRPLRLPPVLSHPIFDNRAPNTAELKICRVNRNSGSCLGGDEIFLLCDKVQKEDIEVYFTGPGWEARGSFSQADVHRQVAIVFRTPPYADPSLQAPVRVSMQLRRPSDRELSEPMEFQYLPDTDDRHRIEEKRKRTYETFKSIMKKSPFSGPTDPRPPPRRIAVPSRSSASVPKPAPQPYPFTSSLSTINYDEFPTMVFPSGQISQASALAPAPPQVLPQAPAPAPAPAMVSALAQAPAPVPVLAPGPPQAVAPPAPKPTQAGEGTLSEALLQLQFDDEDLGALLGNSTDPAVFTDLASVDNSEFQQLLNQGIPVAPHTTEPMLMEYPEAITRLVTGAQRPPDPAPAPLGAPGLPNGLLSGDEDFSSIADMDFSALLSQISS

B1: TAK1 in HEK293T cells (Fig. 3d, e; construct not stated) (enzyme, UniProt O43318 1-606)
chain: MSTASAASSSSSSSAGEMIEAPSQVLNFEEIDYKEIEVEEVVGRGAFGVVCKAKWRAKDVAIKQIESESERKAFIVELRQLSRVNHPNIVKLYGACLNPVCLVMEYAEGGSLYNVLHGAEPLPYYTAAHAMSWCLQCSQGVAYLHSMQPKALIHRDLKPPNLLLVAGGTVLKICDFGTACDIQTHMTNNKGSAAWMAPEVFEGSNYSEKCDVFSWGIILWEVITRRKPFDEIGGPAFRIMWAVHNGTRPPLIKNLPKPIESLMTRCWSKDPSQRPSMEEIVKIMTHLMRYFPGADEPLQYPCQYSDEGQSNSATSTGSFMDIASTNTSNKSDTNMEQVPATNDTIKRLESKLLKNQAKQQSESGRLSLGASRGSSVESLPPTSEGKRMSADMSEIEARIAATTAYSKPKRGHRKTASFGNILDVPEIVISGNGQPRRRSIQDLTVTGTEPGQVSSRSSSPSVRMITTSGPTSEKPTRSHPWTPDDSTDTNGSDNSIPMAYLTLDHQLQPLAPCPNSKESMAVFEQHCKMAQEYMKVQTEIALLLQRKQELVAELDQDEKDQQNTSRLVQEHKKLLDENKSLSTYYQQCKKQLEVIRSQQQKRQGTS
B2: TAB1 in HEK293T cells (Fig. 3d, e; construct not stated) (protein, UniProt Q15750 1-504)
chain: MAAQRRSLLQSEQQPSWTDDLPLCHLSGVGSASNRSYSADGKGTESHPPEDSWLKFRSENNCFLYGVFNGYDGNRVTNFVAQRLSAELLLGQLNAEHAEADVRRVLLQAFDVVERSFLESIDDALAEKASLQSQLPEGVPQHQLPPQYQKILERLKTLEREISGGAMAVVAVLLNNKLYVANVGTNRALLCKSTVDGLQVTQLNVDHTTENEDELFRLSQLGLDAGKIKQVGIICGQESTRRIGDYKVKYGYTDIDLLSAAKSKPIIAEPEIHGAQPLDGVTGFLVLMSEGLYKALEAAHGPGQANQEIAAMIDTEFAKQTSLDAVAQAVVDRVKRIHSDTFASGGERARFCPRHEDMTLLVRNFGYPLGEMSQPTPSPAPAAGGRVYPVSVPYSSAQSTSKTSVTLSLVMPSQGQMVNGAHSASTLDEATPTLTNQSPTLTLQSTNTHTQSSSSSSDGGLFRSRPAHSLPPGEDGRVEPYVDFAEFYRLWSVDHGEQSVVTAP
B3: Myc-tagged TAB2 (protein, UniProt Q9NYJ8 1-693)
chain: MAQGSHQIDFQVLHDLRQKFPEVPEVVVSRCMLQNNNNLDACCAVLSQESTRYLYGEGDLNFSDDSGISGLRNHMTSLNLDLQSQNIYHHGREGSRMNGSRTLTHSISDGQLQGGQSNSELFQQEPQTAPAQVPQGFNVFGMSSSSGASNSAPHLGFHLGSKGTSSLSQQTPRFNPIMVTLAPNIQTGRNTPTSLHIHGVPPPVLNSPQGNSIYIRPYITTPGGTTRQTQQHSGWVSQFNPMNPQQVYQPSQPGPWTTCPASNPLSHTSSQQPNQQGHQTSHVYMPISSPTTSQPPTIHSSGSSQSSAHSQYNIQNISTGPRKNQIEIKLEPPQRNNSSKLRSSGPRTSSTSSSVNSQTLNRNQPTVYIAASPPNTDELMSRSQPKVYISANAATGDEQVMRNQPTLFISTNSGASAASRNMSGQVSMGPAFIHHHPPKSRAIGNNSATSPRVVVTQPNTKYTFKITVSPNKPPAVSPGVVSPTFELTNLLNHPDHYVETENIQHLTDPTLAHVDRISETRKLSMGSDDAAYTQALLVHQKARMERLQRELEIQKKKLDKLKSEVNEMENNLTRRRLKRSNSISQIPSLEEMQQLRSCNRQLQIDIDCLTKEIDLFQARGPHFNPSAIHNFYDNIGFVGPVPPKPKDQRSIIKTPKTQDTEDDEGAQWNCTACTFLNHPALIRCEQCEMPRHF
B4: Myc-tagged TAB2-K656R (protein, UniProt Q9NYJ8 1-693)
chain: MAQGSHQIDFQVLHDLRQKFPEVPEVVVSRCMLQNNNNLDACCAVLSQESTRYLYGEGDLNFSDDSGISGLRNHMTSLNLDLQSQNIYHHGREGSRMNGSRTLTHSISDGQLQGGQSNSELFQQEPQTAPAQVPQGFNVFGMSSSSGASNSAPHLGFHLGSKGTSSLSQQTPRFNPIMVTLAPNIQTGRNTPTSLHIHGVPPPVLNSPQGNSIYIRPYITTPGGTTRQTQQHSGWVSQFNPMNPQQVYQPSQPGPWTTCPASNPLSHTSSQQPNQQGHQTSHVYMPISSPTTSQPPTIHSSGSSQSSAHSQYNIQNISTGPRKNQIEIKLEPPQRNNSSKLRSSGPRTSSTSSSVNSQTLNRNQPTVYIAASPPNTDELMSRSQPKVYISANAATGDEQVMRNQPTLFISTNSGASAASRNMSGQVSMGPAFIHHHPPKSRAIGNNSATSPRVVVTQPNTKYTFKITVSPNKPPAVSPGVVSPTFELTNLLNHPDHYVETENIQHLTDPTLAHVDRISETRKLSMGSDDAAYTQALLVHQKARMERLQRELEIQKKKLDKLKSEVNEMENNLTRRRLKRSNSISQIPSLEEMQQLRSCNRQLQIDIDCLTKEIDLFQARGPHFNPSAIHNFYDNIGFVGPVPPKPKDQRSIIKTPRTQDTEDDEGAQWNCTACTFLNHPALIRCEQCEMPRHF
B5: Flag-tagged TAB1 (protein, UniProt Q15750 1-504)
chain: MAAQRRSLLQSEQQPSWTDDLPLCHLSGVGSASNRSYSADGKGTESHPPEDSWLKFRSENNCFLYGVFNGYDGNRVTNFVAQRLSAELLLGQLNAEHAEADVRRVLLQAFDVVERSFLESIDDALAEKASLQSQLPEGVPQHQLPPQYQKILERLKTLEREISGGAMAVVAVLLNNKLYVANVGTNRALLCKSTVDGLQVTQLNVDHTTENEDELFRLSQLGLDAGKIKQVGIICGQESTRRIGDYKVKYGYTDIDLLSAAKSKPIIAEPEIHGAQPLDGVTGFLVLMSEGLYKALEAAHGPGQANQEIAAMIDTEFAKQTSLDAVAQAVVDRVKRIHSDTFASGGERARFCPRHEDMTLLVRNFGYPLGEMSQPTPSPAPAAGGRVYPVSVPYSSAQSTSKTSVTLSLVMPSQGQMVNGAHSASTLDEATPTLTNQSPTLTLQSTNTHTQSSSSSSDGGLFRSRPAHSLPPGEDGRVEPYVDFAEFYRLWSVDHGEQSVVTAP
B6: Flag-tagged IKKβ (enzyme, UniProt O14920 1-756)
chain: MSWSPSLTTQTCGAWEMKERLGTGGFGNVIRWHNQETGEQIAIKQCRQELSPRNRERWCLEIQIMRRLTHPNVVAARDVPEGMQNLAPNDLPLLAMEYCQGGDLRKYLNQFENCCGLREGAILTLLSDIASALRYLHENRIIHRDLKPENIVLQQGEQRLIHKIIDLGYAKELDQGSLCTSFVGTLQYLAPELLEQQKYTVTVDYWSFGTLAFECITGFRPFLPNWQPVQWHSKVRQKSEVDIVVSEDLNGTVKFSSSLPYPNNLNSVLAERLEKWLQLMLMWHPRQRGTDPTYGPNGCFKALDDILNLKLVHILNMVTGTIHTYPVTEDESLQSLKARIQQDTGIPEEDQELLQEAGLALIPDKPATQCISDGKLNEGHTLDMDLVFLFDNSKITYETQISPRPQPESVSCILQEPKRNLAFFQLRKVWGQVWHSIQTLKEDCNRLQQGQRAAMMNLLRNNSCLSKMKNSMASMSQQLKAKLDFFKTSIQIDLEKYSEQTEFGITSDKLLLAWREMEQAVELCGRENEVKLLVERMMALQTDIVDLQRSPMGRKQGGTLDDLEEQARELYRRLREKPRDQRTEGDSQEMVRLLLQAIQSFEKKVRVIYTQLSKTVVCKQKALELLPKVEEVVSLMNEDEKTVVRLQEKRQKELWNLLKIACSKVRGPVSGSPDSMNASRLSQPGQLMSQPSTASNSLPEPAKKSEELVAEAHNLCTLLENAIQDTVREQDQSFTALDWSWLQTEEEEHSCLEQAS

Legend:
[1] = molecular target: T1, HA-tagged wild-type TRIM45 (tripartite motif-containing 45) (UniProt Q9H8W5); assay: co-IP; HEK293T cells co-transfected with HA-TRIM45 and Flag-tagged partners, or with TAB2 or TRIM45 deletion mutants and the tagged partner (Fig. 3b, f, g); which protein was precipitated not given
T1 sequence: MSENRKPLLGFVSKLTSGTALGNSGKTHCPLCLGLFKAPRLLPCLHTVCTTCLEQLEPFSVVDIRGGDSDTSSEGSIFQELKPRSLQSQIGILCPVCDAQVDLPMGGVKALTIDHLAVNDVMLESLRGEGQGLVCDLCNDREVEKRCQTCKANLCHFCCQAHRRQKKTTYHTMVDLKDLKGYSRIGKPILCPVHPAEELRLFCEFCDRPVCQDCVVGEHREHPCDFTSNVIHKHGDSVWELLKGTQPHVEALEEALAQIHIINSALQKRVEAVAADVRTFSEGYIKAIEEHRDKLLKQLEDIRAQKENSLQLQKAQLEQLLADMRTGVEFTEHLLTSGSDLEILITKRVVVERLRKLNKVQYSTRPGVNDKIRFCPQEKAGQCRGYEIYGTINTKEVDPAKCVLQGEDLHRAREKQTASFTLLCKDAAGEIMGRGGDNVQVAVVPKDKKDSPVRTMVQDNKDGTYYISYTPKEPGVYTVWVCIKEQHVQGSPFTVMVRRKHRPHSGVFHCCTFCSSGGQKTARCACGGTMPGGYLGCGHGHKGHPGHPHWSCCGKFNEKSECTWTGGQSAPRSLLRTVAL

[2] = molecular target: T2, TAB2 in HEK293T cells (Fig. 3d, e; construct not stated) (UniProt Q9NYJ8); assay: co-IP; HEK293T cells with TRIM45 overexpression or TRIM45 knockdown, after OGD/R (Fig. 3d, e)
T2 sequence: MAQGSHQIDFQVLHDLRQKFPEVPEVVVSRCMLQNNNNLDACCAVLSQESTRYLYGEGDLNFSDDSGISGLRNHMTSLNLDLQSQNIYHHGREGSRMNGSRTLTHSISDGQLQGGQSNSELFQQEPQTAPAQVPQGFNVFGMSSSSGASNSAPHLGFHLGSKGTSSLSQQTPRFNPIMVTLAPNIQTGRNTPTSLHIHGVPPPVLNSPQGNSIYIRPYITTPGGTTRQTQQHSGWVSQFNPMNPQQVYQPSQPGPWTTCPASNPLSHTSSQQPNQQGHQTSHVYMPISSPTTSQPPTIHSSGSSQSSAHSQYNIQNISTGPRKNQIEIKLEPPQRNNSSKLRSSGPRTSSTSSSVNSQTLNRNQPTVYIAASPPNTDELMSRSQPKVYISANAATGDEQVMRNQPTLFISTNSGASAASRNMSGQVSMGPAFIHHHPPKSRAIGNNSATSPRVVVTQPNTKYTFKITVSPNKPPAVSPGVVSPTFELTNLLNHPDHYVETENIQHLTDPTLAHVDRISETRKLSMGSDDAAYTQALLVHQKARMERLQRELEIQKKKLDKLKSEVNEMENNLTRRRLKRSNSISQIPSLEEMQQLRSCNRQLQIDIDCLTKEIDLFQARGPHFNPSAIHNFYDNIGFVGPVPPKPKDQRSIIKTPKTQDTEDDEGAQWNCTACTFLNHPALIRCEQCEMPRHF

Flag-tagged TAK1 = molecular target: T3, Flag-tagged TAK1 (UniProt O43318); assay: co-IP; HEK293T cells transfected with His-Ub, Flag-TAK1 and HA-TRIM45 together with Myc-TAB2 or K656R; IP with anti-Flag beads, then immunoblot (Fig. 5g)
T3 sequence: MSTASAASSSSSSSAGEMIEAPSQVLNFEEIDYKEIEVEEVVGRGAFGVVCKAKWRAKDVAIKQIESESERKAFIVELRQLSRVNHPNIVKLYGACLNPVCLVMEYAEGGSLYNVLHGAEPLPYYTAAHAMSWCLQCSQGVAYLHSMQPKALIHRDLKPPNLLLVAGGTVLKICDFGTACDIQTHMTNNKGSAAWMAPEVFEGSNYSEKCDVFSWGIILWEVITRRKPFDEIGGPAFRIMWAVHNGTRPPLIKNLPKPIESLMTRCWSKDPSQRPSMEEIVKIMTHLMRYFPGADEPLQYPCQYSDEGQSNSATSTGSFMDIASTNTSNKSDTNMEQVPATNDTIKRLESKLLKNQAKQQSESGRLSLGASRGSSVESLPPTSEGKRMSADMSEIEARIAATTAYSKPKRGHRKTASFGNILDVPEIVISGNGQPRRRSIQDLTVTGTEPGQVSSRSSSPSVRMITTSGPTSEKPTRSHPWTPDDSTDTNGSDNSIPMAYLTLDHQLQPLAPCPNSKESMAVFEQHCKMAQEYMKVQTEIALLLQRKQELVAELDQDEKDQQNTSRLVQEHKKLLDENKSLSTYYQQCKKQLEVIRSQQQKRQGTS

| Molecule | binding [1] | further results |
| --- | --- | --- |
| Flag-tagged MyD88 (from UniProt Q99836 1-296) | no binding | – |
| Flag-tagged p65 (from UniProt Q04206 1-551) | no binding | – |
| B1 | – | binding [2]: binds |
| B2 | – | binding [2]: binds |
| B3 | – | binding (Flag-tagged TAK1): binds |
| B4 | – | binding (Flag-tagged TAK1): binds |
| B5 | no binding | – |
| B6 | no binding | – |
